Laboratory results reported in the supplement of paper PMC8728848.
The other results are listed elsewhere or left out.

Assays:
Experiment in all cases: glycan array binding signal (z-score within array); higher = stronger binding
Details in all cases: glycan notation: IUPAC condensed, linker removed
[1] = biological target: Neu5Ac(a2-6)Gal(b1-4)GlcNAc(b1-3)Gal(b1-4)GlcNAc(b1-3)[Neu5Ac(a2-6)Gal(b1-4)GlcNAc(b1-3)Gal(b1-4)GlcNAc(b1-6)]GalNAc
In short: (§1)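 From the Consortium for Functional Glycomics database, 3228 arrays were curated, keeping only those whose protein sequence was available. Binding is given as a within-array Z-score averaged across arrays sharing a protein sequence and across linkers. Negative Z-scores can be read as non-binding.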

[2] = biological target: Neu5Ac(a2-6)Gal(b1-4)GlcNAc(b1-3)Gal(b1-4)GlcNAc(b1-6)[Gal(b1-3)]GalNAc
In short: as §1

[3] = biological target: Neu5Ac(a2-6)Gal(b1-4)GlcNAc(b1-3)Gal(b1-4)[Fuc(a1-3)]GlcNAc(b1-3)Gal(b1-4)[Fuc(a1-3)]GlcNAc
In short: as §1

[4] = biological target: Neu5Ac(a2-6)Gal(b1-4)GlcNAc(b1-3)GalNAc
In short: as §1

[5] = biological target: Neu5Ac(a2-6)Gal(b1-4)GlcNAc(b1-3)[Neu5Ac(a2-6)Gal(b1-4)GlcNAc(b1-6)]GalNAc
In short: as §1

[6] = biological target: Neu5Ac(a2-6)Gal(b1-4)GlcNAc(b1-6)GalNAc
In short: as §1

[7] = biological target: Neu5Ac(a2-6)Gal(b1-4)GlcNAc(b1-6)[Gal(b1-3)GlcNAc(b1-3)]Gal(b1-4)Glc
In short: as §1

[8] = biological target: Neu5Ac(a2-6)Gal(b1-4)GlcNAc(b1-6)[Gal(b1-3)]GalNAc
In short: as §1

[9] = biological target: Neu5Ac(a2-6)Gal(b1-4)GlcNAc6S
In short: as §1

Neu5Ac(a2-6)GalNAc = biological target: Neu5Ac(a2-6)GalNAc
In short: as §1

[10] = biological target: Neu5Ac(a2-6)GalNAc(b1-4)GlcNAc
In short: as §1

[11] = biological target: Neu5Ac(a2-6)GalNAc(b1-4)GlcNAc6S
In short: as §1

[12] = biological target: Neu5Ac(a2-6)GlcNAc(b1-4)GlcNAc
In short: as §1

[13] = biological target: Neu5Ac(a2-6)GlcNAc(b1-4)GlcNAc(b1-4)GlcNAc
In short: as §1

Neu5Ac(a2-8)Neu5Ac = biological target: Neu5Ac(a2-8)Neu5Ac
In short: as §1

[14] = biological target: Neu5Ac(a2-8)Neu5Ac(a2-3)Gal(b1-3)GalNAc(b1-4)[Neu5Ac(a2-3)]Gal(b1-4)Glc
In short: as §1

[15] = biological target: Neu5Ac(a2-8)Neu5Ac(a2-3)Gal(b1-3)GalNAc(b1-4)[Neu5Ac(a2-8)Neu5Ac(a2-3)]Gal(b1-4)Glc
In short: as §1

[16] = biological target: Neu5Ac(a2-8)Neu5Ac(a2-3)Gal(b1-4)Glc
In short: as §1

[17] = biological target: Neu5Ac(a2-8)Neu5Ac(a2-3)Gal(b1-4)GlcNAc
In short: as §1

[18] = biological target: Neu5Ac(a2-8)Neu5Ac(a2-3)[Gal(b1-3)GalNAc(b1-4)]Gal(b1-4)Glc
In short: as §1

[19] = biological target: Neu5Ac(a2-8)Neu5Ac(a2-3)[GalNAc(b1-4)]Gal(b1-4)Glc
In short: as §1

[20] = biological target: Neu5Ac(a2-8)Neu5Ac(a2-8)Neu5Ac
In short: as §1

[21] = biological target: Neu5Ac(a2-8)Neu5Ac(a2-8)Neu5Ac(a2-3)Gal(b1-4)Glc
In short: as §1

[22] = biological target: Neu5Ac(a2-8)Neu5Ac(a2-8)Neu5Ac(a2-3)[Gal(b1-3)GalNAc(b1-4)]Gal(b1-4)Glc
In short: as §1

[23] = biological target: Neu5Ac(a2-8)Neu5Ac(a2-8)Neu5Ac(a2-3)[GalNAc(b1-4)]Gal(b1-4)Glc
In short: as §1

[24] = biological target: Neu5Ac(a2-8)Neu5Ac(a2-8)Neu5Ac(a2-8)Neu5Ac(a2-3)[GalNAc(b1-4)]Gal(b1-4)Glc
In short: as §1

[25] = biological target: Neu5Ac(a2-8)Neu5Gc(a2-3)Gal(b1-4)GlcNAc
In short: as §1

Neu5Ac(b1-6)GalNAc = biological target: Neu5Ac(b1-6)GalNAc
In short: as §1

[26] = biological target: Neu5Ac(b2-6)Gal(b1-4)GlcNAc
In short: as §1

Neu5Ac(b2-6)GalNAc = biological target: Neu5Ac(b2-6)GalNAc
In short: as §1

[27] = biological target: Neu5Ac9Ac(a2-3)Gal(b1-3)GlcNAc
In short: as §1

[28] = biological target: Neu5Ac9Ac(a2-3)Gal(b1-4)GlcNAc
In short: as §1

[29] = biological target: Neu5Ac9Ac(a2-6)Gal(b1-4)GlcNAc
In short: as §1

[30] = biological target: Neu5Gc(a2-3)Gal(b1-3)GlcNAc
In short: as §1

[31] = biological target: Neu5Gc(a2-3)Gal(b1-3)[Fuc(a1-4)]GlcNAc
In short: as §1

Neu5Gc(a2-3)Gal(b1-4)Glc = biological target: Neu5Gc(a2-3)Gal(b1-4)Glc
In short: as §1

[32] = biological target: Neu5Gc(a2-3)Gal(b1-4)GlcNAc
In short: as §1

[33] = biological target: Neu5Gc(a2-3)Gal(b1-4)GlcNAc(b1-3)Gal(b1-4)GlcNAc(b1-2)Man(a1-3)[Neu5Gc(a2-3)Gal(b1-4)GlcNAc(b1-3)Gal(b1-4)GlcNAc(b1-2)Man(a1-6)]Man(b1-4)GlcNAc(b1-4)GlcNAc
In short: as §1

[34] = biological target: Neu5Gc(a2-3)Gal(b1-4)[Fuc(a1-3)]GlcNAc
In short: as §1

[35] = biological target: Neu5Gc(a2-6)Gal(b1-4)GlcNAc
In short: as §1

Neu5Gc(a2-6)GalNAc = biological target: Neu5Gc(a2-6)GalNAc
In short: as §1

[36] = biological target: Neu5Gc(a2-8)Neu5Ac(a2-3)Gal(b1-4)GlcNAc
In short: as §1

[37] = biological target: Neu5Gc(a2-8)Neu5Gc(a2-3)Gal(b1-4)GlcNAc
In short: as §1

[38] = biological target: Neu5Gc(a2-8)Neu5Gc(a2-3)Gal(b1-4)GlcNAc(b1-3)Gal(b1-4)GlcNAc
In short: as §1

[39] = biological target: Neu5Gc(a2-8)Neu5Gc(a2-6)Gal(b1-4)GlcNAc
In short: as §1

[40] = biological target: Neu5Gc(b2-6)Gal(b1-4)GlcNAc
In short: as §1

B1: LCA (Lens culinaris), P02870 (protein)
chain: MASLQTQMISFYLIFLSILLTTIFFFKVNSTETTSFSITKFSPDQKNLIFQGDGYTTKGKLTLTKAVKSTVGRALYSTPIHIWDRDTGNVANFVTSFTFVIDAPSSYNVADEFTFFIAPVDTKPQTGGGYLGVFNSKEYDKTSQTVAVEFDTFYNAAWDPSNKERHIGIDVNSIKSVNTKSWNLQNGERANVVIAFNAATNVLTVTLTYPNSLEEENVTSYTLNEVVPLKDVVPEWVRIGFSATTGAEFAAHEVHSWSFHSELGGTSSSKQAADA
glycan array binding signal (z-score) [1]: 0.285
glycan array binding signal (z-score) [2]: -0.146
glycan array binding signal (z-score) [3]: -0.224
glycan array binding signal (z-score) [4]: -0.22
glycan array binding signal (z-score) [5]: -0.238
glycan array binding signal (z-score) [6]: -0.204
glycan array binding signal (z-score) [7]: -0.209
glycan array binding signal (z-score) [8]: -0.226
glycan array binding signal (z-score) [9]: -0.23
glycan array binding signal (z-score) (Neu5Ac(a2-6)GalNAc): -0.232
glycan array binding signal (z-score) [10]: -0.233
glycan array binding signal (z-score) [11]: -0.258
glycan array binding signal (z-score) [12]: -0.232
glycan array binding signal (z-score) [13]: -0.231
glycan array binding signal (z-score) (Neu5Ac(a2-8)Neu5Ac): -0.217
glycan array binding signal (z-score) [14]: -0.268
glycan array binding signal (z-score) [15]: -0.192
glycan array binding signal (z-score) [16]: -0.26
glycan array binding signal (z-score) [17]: -0.237
glycan array binding signal (z-score) [18]: -0.222
glycan array binding signal (z-score) [19]: -0.23
glycan array binding signal (z-score) [20]: -0.222
glycan array binding signal (z-score) [21]: -0.167
glycan array binding signal (z-score) [22]: -0.237
glycan array binding signal (z-score) [23]: -0.054
glycan array binding signal (z-score) [24]: -0.183
glycan array binding signal (z-score) [25]: -0.196
glycan array binding signal (z-score) (Neu5Ac(b1-6)GalNAc): -0.223
glycan array binding signal (z-score) [26]: -0.229
glycan array binding signal (z-score) (Neu5Ac(b2-6)GalNAc): -0.246
glycan array binding signal (z-score) [27]: -0.217
glycan array binding signal (z-score) [28]: -0.012
glycan array binding signal (z-score) [29]: -0.209
glycan array binding signal (z-score) [30]: -0.238
glycan array binding signal (z-score) [31]: -0.207
glycan array binding signal (z-score) (Neu5Gc(a2-3)Gal(b1-4)Glc): -0.226
glycan array binding signal (z-score) [32]: -0.219
glycan array binding signal (z-score) [33]: -0.193
glycan array binding signal (z-score) [34]: -0.232
glycan array binding signal (z-score) [35]: -0.177
glycan array binding signal (z-score) (Neu5Gc(a2-6)GalNAc): -0.234
glycan array binding signal (z-score) [36]: -0.225
glycan array binding signal (z-score) [37]: -0.258
glycan array binding signal (z-score) [38]: -0.218
glycan array binding signal (z-score) [39]: -0.243
glycan array binding signal (z-score) [40]: -0.181
